Experimental data from ChEMBL document CHEMBL1961873, “Compounds: GSK PKIS; Assays: Nanosyn kinase panel” (2012).
Only a part is listed here, and it is no random draw.

Tests used:
[1] = target: Sphingosine kinase 1 (Homo sapiens) (UniProt Q9NYA1); settings: at 1 µM;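 also: mean SPHK1 inhibition value reported from the GSK PKIS kinase panel screen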
[2] = target: T1, Sphingosine kinase 2 (Homo sapiens) (UniProt Q9NRA0); settings: at 0.1 µM
T1 sequence (whole entry): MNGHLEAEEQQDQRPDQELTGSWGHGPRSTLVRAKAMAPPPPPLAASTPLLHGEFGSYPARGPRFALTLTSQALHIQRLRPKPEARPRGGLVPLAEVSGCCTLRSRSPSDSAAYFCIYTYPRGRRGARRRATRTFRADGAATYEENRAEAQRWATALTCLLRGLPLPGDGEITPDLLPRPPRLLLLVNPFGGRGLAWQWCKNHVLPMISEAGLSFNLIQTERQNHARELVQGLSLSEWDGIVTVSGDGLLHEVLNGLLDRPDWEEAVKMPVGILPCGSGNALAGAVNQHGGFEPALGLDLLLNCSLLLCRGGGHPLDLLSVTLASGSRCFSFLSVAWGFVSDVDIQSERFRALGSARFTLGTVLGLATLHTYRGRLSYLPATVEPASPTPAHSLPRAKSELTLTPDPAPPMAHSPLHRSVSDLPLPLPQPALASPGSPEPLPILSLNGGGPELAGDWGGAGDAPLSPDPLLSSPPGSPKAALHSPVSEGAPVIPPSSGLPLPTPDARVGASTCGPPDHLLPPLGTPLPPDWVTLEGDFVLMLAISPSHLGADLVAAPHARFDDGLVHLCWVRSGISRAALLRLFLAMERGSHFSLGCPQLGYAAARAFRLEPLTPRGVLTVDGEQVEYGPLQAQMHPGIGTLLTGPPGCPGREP

[3] = target: T1, Sphingosine kinase 2 (Homo sapiens); settings: at 1 µM
[4] = target: Casein kinase II subunit alpha (Homo sapiens) (UniProt P68400); settings: at 0.1 µM
UniProt P68400, sequence (P68400 whole entry, looked up): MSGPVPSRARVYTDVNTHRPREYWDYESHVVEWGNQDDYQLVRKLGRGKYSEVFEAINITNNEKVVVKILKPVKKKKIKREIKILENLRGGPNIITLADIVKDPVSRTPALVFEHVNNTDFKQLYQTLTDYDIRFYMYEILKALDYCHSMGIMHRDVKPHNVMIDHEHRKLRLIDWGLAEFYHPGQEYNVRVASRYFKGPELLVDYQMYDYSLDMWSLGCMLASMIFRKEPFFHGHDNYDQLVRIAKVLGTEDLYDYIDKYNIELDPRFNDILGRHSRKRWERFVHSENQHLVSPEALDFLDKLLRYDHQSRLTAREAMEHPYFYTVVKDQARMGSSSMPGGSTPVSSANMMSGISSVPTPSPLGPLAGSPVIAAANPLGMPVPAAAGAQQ

[5] = target: Casein kinase II subunit alpha (Homo sapiens) (UniProt P68400); settings: at 1 µM
[6] = target: T2, Inhibitor of nuclear factor kappa-B kinase subunit alpha (Homo sapiens) (UniProt O15111); settings: at 0.1 µM
T2 sequence (whole entry): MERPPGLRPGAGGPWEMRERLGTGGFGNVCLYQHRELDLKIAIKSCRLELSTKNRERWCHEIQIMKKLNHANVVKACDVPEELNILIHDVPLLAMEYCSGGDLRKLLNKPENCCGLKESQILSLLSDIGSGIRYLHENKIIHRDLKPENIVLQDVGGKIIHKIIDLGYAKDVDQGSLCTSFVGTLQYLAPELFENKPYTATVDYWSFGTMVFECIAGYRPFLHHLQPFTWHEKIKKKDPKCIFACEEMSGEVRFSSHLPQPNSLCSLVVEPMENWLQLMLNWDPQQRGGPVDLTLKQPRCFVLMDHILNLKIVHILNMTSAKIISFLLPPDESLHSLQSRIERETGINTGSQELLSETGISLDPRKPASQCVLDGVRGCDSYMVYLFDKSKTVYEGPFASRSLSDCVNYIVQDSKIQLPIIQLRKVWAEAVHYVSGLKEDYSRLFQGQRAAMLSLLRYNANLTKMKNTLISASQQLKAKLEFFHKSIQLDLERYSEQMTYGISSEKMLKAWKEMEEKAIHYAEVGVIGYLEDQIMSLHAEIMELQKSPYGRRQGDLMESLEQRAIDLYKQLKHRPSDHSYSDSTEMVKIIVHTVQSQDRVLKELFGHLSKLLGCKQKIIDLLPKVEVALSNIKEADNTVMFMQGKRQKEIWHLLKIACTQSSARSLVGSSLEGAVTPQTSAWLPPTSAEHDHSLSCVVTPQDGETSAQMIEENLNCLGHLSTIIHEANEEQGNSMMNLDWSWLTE

[7] = target: T2, Inhibitor of nuclear factor kappa-B kinase subunit alpha (Homo sapiens); settings: at 1 µM
[8] = target: T3, Inhibitor of nuclear factor kappa-B kinase subunit beta (Homo sapiens) (UniProt O14920); settings: at 0.1 µM
T3 sequence (whole entry): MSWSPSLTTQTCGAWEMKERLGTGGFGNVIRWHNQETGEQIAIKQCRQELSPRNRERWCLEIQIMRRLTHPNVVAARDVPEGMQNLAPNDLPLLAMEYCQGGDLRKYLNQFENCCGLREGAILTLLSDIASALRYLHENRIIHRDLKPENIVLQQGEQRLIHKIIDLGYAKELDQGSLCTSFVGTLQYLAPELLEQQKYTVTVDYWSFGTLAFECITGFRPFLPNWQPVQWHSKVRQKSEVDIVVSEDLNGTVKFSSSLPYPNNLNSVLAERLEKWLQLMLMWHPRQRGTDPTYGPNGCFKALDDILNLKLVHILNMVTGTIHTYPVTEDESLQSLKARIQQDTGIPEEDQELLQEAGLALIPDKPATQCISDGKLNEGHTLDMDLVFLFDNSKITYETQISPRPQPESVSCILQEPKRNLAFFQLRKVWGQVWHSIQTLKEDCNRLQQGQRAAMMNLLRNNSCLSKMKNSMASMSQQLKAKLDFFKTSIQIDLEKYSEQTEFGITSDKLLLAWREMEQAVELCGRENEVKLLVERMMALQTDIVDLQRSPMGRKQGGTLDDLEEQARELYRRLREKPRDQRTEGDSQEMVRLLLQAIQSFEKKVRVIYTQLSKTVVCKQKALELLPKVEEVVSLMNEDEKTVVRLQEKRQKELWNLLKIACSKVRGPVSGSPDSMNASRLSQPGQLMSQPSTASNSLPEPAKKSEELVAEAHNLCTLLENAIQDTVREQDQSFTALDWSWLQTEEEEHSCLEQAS

[9] = target: T3, Inhibitor of nuclear factor kappa-B kinase subunit beta (Homo sapiens); settings: at 1 µM
[10] = target: T4, Inhibitor of nuclear factor kappa-B kinase subunit epsilon (Homo sapiens) (UniProt Q14164); settings: at 0.1 µM;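 also: mean inhibition of IKKε reported, from the GSK PKIS dataset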
T4 sequence (whole entry): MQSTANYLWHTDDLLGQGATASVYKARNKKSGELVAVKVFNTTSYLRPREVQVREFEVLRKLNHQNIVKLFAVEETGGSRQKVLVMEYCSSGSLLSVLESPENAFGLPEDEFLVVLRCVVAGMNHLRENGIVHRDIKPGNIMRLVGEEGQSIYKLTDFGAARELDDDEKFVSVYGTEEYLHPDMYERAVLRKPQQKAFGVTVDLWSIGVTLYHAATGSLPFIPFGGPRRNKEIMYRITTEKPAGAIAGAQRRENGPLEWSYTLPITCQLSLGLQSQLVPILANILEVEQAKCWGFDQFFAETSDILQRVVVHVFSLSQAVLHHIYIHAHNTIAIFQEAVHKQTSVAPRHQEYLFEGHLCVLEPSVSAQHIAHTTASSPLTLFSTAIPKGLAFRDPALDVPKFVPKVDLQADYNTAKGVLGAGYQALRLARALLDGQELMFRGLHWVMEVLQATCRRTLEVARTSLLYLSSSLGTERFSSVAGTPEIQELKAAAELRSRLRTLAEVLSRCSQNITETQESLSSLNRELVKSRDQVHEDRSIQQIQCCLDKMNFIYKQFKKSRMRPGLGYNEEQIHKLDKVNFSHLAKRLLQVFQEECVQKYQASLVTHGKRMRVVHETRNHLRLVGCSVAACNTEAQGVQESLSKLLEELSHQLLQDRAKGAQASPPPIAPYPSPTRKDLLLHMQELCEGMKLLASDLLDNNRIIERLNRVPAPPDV

UniProt Q9NYA1, sequence (Q9NYA1 whole entry): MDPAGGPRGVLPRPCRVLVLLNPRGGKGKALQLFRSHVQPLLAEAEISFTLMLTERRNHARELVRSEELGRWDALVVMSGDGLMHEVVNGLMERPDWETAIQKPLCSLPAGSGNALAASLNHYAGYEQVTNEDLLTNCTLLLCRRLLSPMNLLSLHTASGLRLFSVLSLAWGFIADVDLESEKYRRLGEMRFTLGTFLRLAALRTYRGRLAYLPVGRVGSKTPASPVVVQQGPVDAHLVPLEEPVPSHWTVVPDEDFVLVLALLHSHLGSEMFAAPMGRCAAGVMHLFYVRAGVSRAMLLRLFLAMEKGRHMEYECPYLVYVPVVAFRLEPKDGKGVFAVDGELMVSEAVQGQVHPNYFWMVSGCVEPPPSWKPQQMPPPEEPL

SMILES	inhibition [1]	inhibition [2]	inhibition [3]	inhibition [4]	inhibition [5]	inhibition [6]	inhibition [7]	inhibition [8]	inhibition [9]	inhibition [10]
CC(C)(C)c1ccc(Oc2nccc(-c3c(-c4ccc(F)cc4)ncn3C3CCNCC3)n2)cc1	1.2%	0%	2.76%	10.3%	4.18%	2.01%	-4.85%	7.15%	6.81%	9.48%
COc1ccccc1Oc1nccc(-c2c(-c3ccc(F)cc3)ncn2C2CCNCC2)n1	-2.01%	-0.64%	0.85%	3.37%	5.8%	3.94%	5.41%	6.53%	6.59%	–
Fc1ccc(Oc2nccc(-c3c(-c4ccc(F)cc4)ncn3C3CCNCC3)n2)cc1	3.61%	-1.08%	-1.86%	6.48%	2.41%	4.61%	5.03%	5.79%	6.38%	6.92%
COc1ccccc1C1=C(Nc2ccccc2)C(=O)NC1=O	-3.46%	0.43%	1.28%	4.37%	9.2%	-0.44%	0.8%	3.89%	4.05%	4.87%
O=C1NC(=O)C(c2ccccc2)=C1Nc1ccccc1	-4.67%	0.02%	-2.23%	3.12%	4.84%	2.57%	11.6%	6.52%	7.73%	7.92%
Fc1ccc(-c2ncn(C3CCNCC3)c2-c2ccnc(Oc3cccc(F)c3)n2)cc1	0.83%	-1.23%	0.67%	6.47%	8.56%	6.65%	10.1%	5.25%	7.12%	6.5%
Cc1cccc(Oc2nccc(-c3c(-c4ccc(F)cc4)ncn3C3CCNCC3)n2)c1C	0.59%	0.27%	0.26%	–	5.25%	-2.99%	2.52%	5.7%	5.76%	6.04%
Fc1ccc(-c2ncn(C3CCNCC3)c2-c2ccnc(Oc3ccc(Cl)cc3)n2)cc1	0.16%	1.2%	0%	2.72%	0.7%	-5.26%	-0.06%	–	0.18%	3.89%
Fc1ccc(-c2ncn(C3CCNCC3)c2-c2ccnc(Oc3cccc(C(F)(F)F)c3)n2)cc1	-2.4%	-0.49%	-0.15%	12%	6.22%	7.97%	4.69%	8.46%	8.48%	9.02%
CS(=O)(=O)c1ccc(Oc2nccc(-c3c(-c4ccc(F)cc4)ncn3C3CCNCC3)n2)cc1	0.83%	0.29%	4.56%	3.58%	1.78%	6.95%	5.81%	6.21%	6.56%	5.78%
O=C(O)c1ccc(Oc2nccc(-c3c(-c4ccc(F)cc4)ncn3C3CCNCC3)n2)cc1	2.97%	-0.97%	-0.93%	4.63%	3.61%	2.54%	6.28%	6.2%	6.85%	7.26%
O=C1NC(=O)C(c2cccc([N+](=O)[O-])c2)=C1Nc1cc(Cl)c(O)c(Cl)c1	0.61%	-2.47%	1.43%	9.34%	-1.15%	0.56%	-1.55%	5.43%	4.99%	7.81%
O=C1NC(=O)C(c2ccccc2Cl)=C1Nc1cc(Cl)c(O)c(Cl)c1	-3.04%	-0.55%	-2%	3%	10.8%	9.08%	3.79%	3.9%	3.42%	8.42%
NC(=O)CCc1ccccc1Oc1nccc(-c2c(-c3ccc(F)cc3)ncn2C2CCNCC2)n1	4.2%	0.25%	0.79%	4.11%	-0.73%	4.04%	7.27%	-0.01%	-0.27%	-0.48%
